The source of these data is patent US20260174788A1 (priority 2023, published 2026).

Read-outs that look alike come from different tables or passages of the source.

This assay has as its system HR NMIBC (CIS with or without papillary disease) unresponsive to prior intravesical BCG therapy. It counts as in vivo, human.
[1] abbreviates: cutoff 4 Apr. 2023, efficacy set.
Where [2] appears, read: cutoff 4 Apr. 2023, efficacy set 22 TAR-200, 21 CET.
The mark [3] stands for this setting: cutoff 20 Feb. 2023, evaluable set.
Where [4] appears, read: cutoff 20 Feb. 2023, evaluable set 19 TAR-200, 18 CET.

For the substance “cetrelimab: IgG4/K antagonistic anti-PD-1 antibody, heavy chain of SEQ ID NO: 9 and light chain of SEQ ID NO: 10”, under setting [1], the “95% CI of CR rate by central review” value is “(18.1%, 61.6%)”; the “Non-complete response (Non-CR) rate” value worked out at 61.9%; the Non-evaluable rate is given as 4.8%; the “Non-evaluable, patients” value was found to be 1. Besides, under setting [2], the “Complete response (CR) by central review, patients” value came out at 8; the “Non-complete response (Non-CR), patients” value was 13; the “Overall CR rate by central review” value is recorded as 38.1%. For the same substance, the “Responders who had an event” value (cutoff 20 Feb. 2023) worked out at 1. The “Median duration of response” value (cutoff 20 Feb. 2023, approximately 9 months median follow up) is given as “not estimable”. In addition, under setting [3], the “95% CI of CR rate by central review” value is reported as “(13.3%, 59.0%)”; the “Non-complete response (Non-CR) rate” value is on record as “(66.7%)”; the “Overall CR rate based on investigator” value is listed as 44.4% (21.5%, 69.2%). Also, under setting [4], the “Complete response (CR), best overall response by central review, participants” value was determined as 6; the “Non-complete response (Non-CR), participants” value is reported as 12; the “Overall CR rate by central review” value is recorded as 33.3% (13.3%, 59.0%). Also, the “Overall CR rate by central review” value (cutoff 20 Feb. 2023, evaluable set 19 TAR-200, 18 CET, listed as CET) is “(33.3%)”.
